Values marked as one replicate rest on one cluster of the flow cell; about a third of the high ones do not repeat.
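Further: ATP exposure 15 min at 22 °C before imaging.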

For one data set, the system named is ATP. As to the kind of experiment: switch fluorescence ratio, 500 uM ATP over buffer (Cy3 cluster intensity, sum of 5 cycles each) (fold (ratio)); higher = stronger signal-on switching upon ATP binding. To be noted: aptamer strand: ATP DNA aptamer (quencher-CACCTGGGGGAGTATTGCGGAGGAAGG + anchor), 100 nM annealed; ATP concentration: 500 uM; one replicate. Summed up:
(§1)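 Imaging in selection buffer was followed by imaging after 15 min with 500 uM ATP at 22 °C, for Cy3-labelled switching-strand clusters annealed to 100 nM quencher-labelled ATP aptamer on a modified Illumina MiSeq flow-cell. Five of these buffer/ATP cycles ran, separated by NaOH stripping and re-annealing. The fluorescence ratio per cluster is summed target-cycle over summed buffer-cycle Cy3 intensity, averaged per switch-domain sequence; clusters outside 100-1000 RFU were removed.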
On to “TCGTCGGCAGCGTCAGATGTGTATAAGAGACAGTTTTTTTTTTTTTTTTTTTTTTTTTAATC”, for which the switch fluorescence ratio was 0.996.

For another data set, the system named is ATP. As to the kind of experiment: switch fluorescence ratio, 500 uM ATP over buffer (Cy3 cluster intensity, sum of 5 cycles each) (fold (ratio)); higher = stronger signal-on switching upon ATP binding; sequences stand for … in TCGTCGGCAGCGTCAGATGTGTATAAGAGACAGTTTTTTTTTTTTTTTTTTTTTTTTT…TC. To be noted: aptamer strand: ATP DNA aptamer (quencher-CACCTGGGGGAGTATTGCGGAGGAAGG + anchor), 100 nM annealed; ATP concentration: 500 uM; one replicate. Summed up: as §1
Consider TTGAA, for which the switch fluorescence ratio came to 1.02. With TGTTAATCTA, the switch fluorescence ratio amounted to 0.997. In the case of TTTATTGTTG, the switch fluorescence ratio amounted to 1. GGGTCCGTGT: the switch fluorescence ratio turned out to be 1.03.

Regarding CCTGTCGATA, the switch fluorescence ratio was 1.16.

For the sequence CTATTACGT, the switch fluorescence ratio came out at 0.956. As to TATGATCGTC, the switch fluorescence ratio worked out at 0.993. Take CAAGAAGTTA: the switch fluorescence ratio came to 1.02. CCTGCAGTCG: the switch fluorescence ratio was 1.14. GATGCGTACT: the switch fluorescence ratio was determined as 1.07. Same read-out and setting: under TTTTGTTGCC stands 1.09; under ATGTTGAGAT, 0.99; under GGAGGGCCA, 1.04.

Turning to AGAGTTTGCG, the switch fluorescence ratio is 1.08.

Consider GTAAAAAAGT, for which the switch fluorescence ratio was found to be 1.01.

As for CTGGCCTTAC, the switch fluorescence ratio stood at 2.87. As to GCGCTTCCTA, the switch fluorescence ratio turned out to be 1.08. Same read-out and setting: under AAGCTTTA stands 1.02; under TTTAGTTTC, 0.934; under AAAACTGGGT, 1.06.

For the sequence AATGGAAGTC, the switch fluorescence ratio amounted to 0.972.

Turning to CTCGGGCATC, the switch fluorescence ratio was found to be 1.41. The same measure, in the same setting: under ATTTTGGTGC stands 1.01; under AATCAAGGGT, 0.97. Consider TGAATTGTAG, for which the switch fluorescence ratio was 0.988. Same read-out and setting: with GACTTTGATC the figure was 1.04; with CGATGCGTGA, 1.02; with TGAGAGCGGA, 0.964. On to GAGCAGTAGG, for which the switch fluorescence ratio turned out to be 1.04. Same read-out and setting: under GAAGAGATTT stands 0.999; under GTTTGGGGA, 1.01; under GCTGGTAGAA, 0.988. In the case of TTATTTACGT, the switch fluorescence ratio turned out to be 1.04. Regarding GTGCTGGGTT, the switch fluorescence ratio is 1.03. GCTGGACCCC: the switch fluorescence ratio was 1.06.

Take TTCTTACGGA: the switch fluorescence ratio was determined as 0.999.

ATACTTTTAG: the switch fluorescence ratio amounted to 1.01. Consider CGTGACAGTC, for which the switch fluorescence ratio worked out at 1.04. Take AGCGGGCTGT: the switch fluorescence ratio was found to be 1.01. In the case of CGACCGAAGT, the switch fluorescence ratio was found to be 1.1. Still for that read-out and setting: with ATTCTGGAGG the figure was 1.01.

Regarding TATCGTTGGG, the switch fluorescence ratio came out at 0.966. As to TTCTTAAGAT, the switch fluorescence ratio is 0.998. On to CATCTTTGGC, for which the switch fluorescence ratio is 0.987.

Consider GAGTCGCACC, for which the switch fluorescence ratio stood at 1.02. In the case of ATTACAGGGA, the switch fluorescence ratio was 1. Regarding ATGATAACGA, the switch fluorescence ratio is 1.01. For AATGTCATCG, the switch fluorescence ratio was found to be 1.09. The same measure, in the same setting: with TCCAGTTGGC the figure was 1.06; with GTAGATGTGG, 0.949. Take TTAAACGTAT: the switch fluorescence ratio worked out at 1.5. Take CCGACCTCCA: the switch fluorescence ratio was determined as 3.61. Same read-out and setting: with GAAAATTGTT the figure was 0.993; with GCCCTGTCCA, 1.03. GACGATGGGA: the switch fluorescence ratio turned out to be 1.13. As for TACGGAGAGT, the switch fluorescence ratio was 1.01. Turning to CAGTCTCATT, the switch fluorescence ratio came to 1.02. In the case of CGGGCACCCT, the switch fluorescence ratio is 0.957.

With GGTCGGCCCA, the switch fluorescence ratio was found to be 1.01. For ACAAGAGTCT, the switch fluorescence ratio was 1.04. TGTCCAAAAG: the switch fluorescence ratio came out at 1.01. Consider ATGCGACCCT, for which the switch fluorescence ratio is 1.31. TAACAGCATG: the switch fluorescence ratio stood at 1.04.

In the case of ATAGACTATT, the switch fluorescence ratio stood at 0.981. On to GTTGGTGCGT, for which the switch fluorescence ratio worked out at 1.04. Consider TACAATGGAT, for which the switch fluorescence ratio came out at 0.991. With CACTATGTAT, the switch fluorescence ratio turned out to be 0.977. For CTAGCGTGAG, the switch fluorescence ratio was 0.975.

For the sequence CCGCTGGCGG, the switch fluorescence ratio stood at 1.

Take TATGCGAAAT: the switch fluorescence ratio came to 1.04. Take TAACTTGGTC: the switch fluorescence ratio worked out at 1.02. As for GGAGCCTAAG, the switch fluorescence ratio amounted to 0.969. Still for that read-out and setting: under CTGAGGAGT stands 0.998; under TATCTGCGCT, 1.04; under GGTTCGTGC, 0.967. Turning to CGTAGCGGCA, the switch fluorescence ratio is 1.07. For GCGTTGTCCG, the switch fluorescence ratio turned out to be 1.15. Turning to ACTCTTTGGG, the switch fluorescence ratio turned out to be 1.03. For TTTTGAATGT, the switch fluorescence ratio came to 0.969. ACAGCGCACG: the switch fluorescence ratio came out at 1.07. Still for that read-out and setting: with GCTGGTGAAA the figure was 1.02; with GTCCGGTGGG, 0.994.

For the origin of these results see the supplement of paper PMC10126150.
